Test results published in PubChem BioAssay AID624170 (National Center for Advancing Translational Sciences (NCATS), 2012).
The campaign covered roughly 410,000 compounds. About 850 (0.21%) were called active. The shares of active, inactive and inconclusive entries below differ from those in the screen. The call rests on the fitted dose curve; in most records, active means well fitted inhibition curve with a large enough effect; inconclusive means small, poorly fitted or top-dose-only effect, or another doubt; inactive means no such curve, though single readings can be large or run the other way. No potency is given beside an inconclusive call; the fits are too rough.
Potency means the concentration at half of the fitted maximal effect; tags describe the fitted curve by direction and shape.

These compounds were tested against Glutaminase kidney isoform, mitochondrial (Homo sapiens) (UniProt O94925) (assay: qHTS for Inhibitors of Glutaminase (GLS)). Conditions: GLS enzymatic activity, qHTS titration; series mostly up to 45.5 µM.
Chain of UniProt O94925 (O94925 whole entry, looked up, canonical isoform): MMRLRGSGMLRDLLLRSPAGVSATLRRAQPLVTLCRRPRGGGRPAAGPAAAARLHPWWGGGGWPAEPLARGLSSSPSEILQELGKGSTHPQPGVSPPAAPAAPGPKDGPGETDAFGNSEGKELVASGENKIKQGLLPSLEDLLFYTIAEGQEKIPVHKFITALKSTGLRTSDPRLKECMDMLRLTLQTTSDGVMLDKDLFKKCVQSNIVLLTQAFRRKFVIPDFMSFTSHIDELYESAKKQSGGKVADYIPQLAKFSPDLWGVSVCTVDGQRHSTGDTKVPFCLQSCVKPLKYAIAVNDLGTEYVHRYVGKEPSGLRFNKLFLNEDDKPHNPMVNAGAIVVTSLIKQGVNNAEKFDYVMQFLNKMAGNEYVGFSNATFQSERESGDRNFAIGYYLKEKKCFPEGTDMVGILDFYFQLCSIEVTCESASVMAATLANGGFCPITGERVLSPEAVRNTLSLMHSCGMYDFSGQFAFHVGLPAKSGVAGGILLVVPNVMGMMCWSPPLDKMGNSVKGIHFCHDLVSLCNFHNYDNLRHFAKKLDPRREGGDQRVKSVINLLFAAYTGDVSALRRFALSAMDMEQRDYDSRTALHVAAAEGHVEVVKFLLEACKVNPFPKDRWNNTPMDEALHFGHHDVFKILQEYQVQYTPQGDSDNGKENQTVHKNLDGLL
In short: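 Read-out is an Amplex red fluorescence increase coupled through glutamate oxidase and HRP, measured before and after 30 min room-temperature incubation. hKGA is in 45 mM KH2PO4 (pH 8.2) with 0.02% Tween-20; glutamine added as 1mM solution.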
In the case of `CCCn1c2ccccc2c2cnn(CC(=O)NCCCN(Cc3ccccc3)C(C)C)c(=O)c21`, the Potency was “inactive”.
`COc1cc(/C=C/C(=O)OCC(=O)N2CCC(Cc3ccccc3)CC2)ccc1O` was tested, and the Potency was inconclusive [inhibitor, partial curve].
In the case of `C=CCn1c(-c2cccn(Cc3cccc(Cl)c3)c2=O)n[nH]c1=S`, the Potency was inconclusive [inhibitor, single point].
With `COc1cccc(CC(=O)Nc2ccc(S(=O)(=O)Nc3nc(C)cc(C)n3)cc2)c1` the Potency was inconclusive [inhibitor, single point].
For `O=C(COc1ccccc1/C=C\c1nc(O)c([N+](=O)[O-])c(=O)[nH]1)Nc1ccccc1`, the Potency was inconclusive [inhibitor, single point].
`C=CCN1C(=O)/C(=C2/Sc3ccccc3N2CCCS(=O)(=O)O)SC1=S` was tested, and the Potency was inconclusive [inhibitor, single point].
`C[C@H]1NCc2cc(-c3ccc4c(=O)c(C(=O)O)cn(C5CC5)c4c3OC(F)F)ccc21` was tested, and the Potency was active: 12.6 µM.
In the case of `Cc1ccc(C)c(NC(=O)c2ccc3c(c2)CCN3S(=O)(=O)c2ccccc2)c1`, the Potency was “inactive”.
With `CCOc1ccc(CCNC(=O)C2CC=CCC2C(=O)OC(C)C)cc1OCC` (stereo not drawn) the Potency was inconclusive [inhibitor, single point].
`O=S(=O)(c1ccc(Oc2ccc(Br)cc2)cc1)N1CCOCC1` was tested, and the Potency was “inactive”.
`NC(=O)NNC(=S)Nc1cccc2ccccc12` was tested, and the Potency was inconclusive [inhibitor, partial curve].
For `COC(=O)C(Cc1ccc(OC(=O)c2ccc(C(F)(F)F)cc2)cc1)N1Cc2ccccc2C1=O` (stereo not drawn), the Potency was inconclusive [inhibitor, single point].
For `O=C(NCc1cccnc1)c1cc(Sc2ccccc2Cl)nc2ccccc12`, the Potency was inconclusive [inhibitor, partial curve, poor fit].
With `CC(C)c1cccc(C(C)C)c1NC(=O)c1ccc(-c2cc(Cl)ccc2Cl)o1` the Potency was “inactive”.
With `O=C(/C=C/c1ccco1)N1CCN(S(=O)(=O)c2ccccc2)CC1` the Potency was inconclusive [inhibitor, single point].
For `COC(=O)c1ccc(C(=O)OC)nc1`, the Potency was “inactive”.
`O=c1c2c(nc3n1CCCCC3)sc1c(O)c(Br)ccc12` was tested, and the Potency was inconclusive [inhibitor, partial curve, poor fit].
`CC1C(=O)N(Cc2cn(CCC3OCCO3)nn2)CCS(=O)(=O)N1Cc1ccc(-c2ccc(F)cc2)cc1` (stereo not drawn) was tested, and the Potency was inconclusive [inhibitor, partial curve, poor fit].
For `Cc1cc(C)c(S(=O)(=O)c2ccccc2C)c(Cl)n1`, the Potency was active: 12.6 µM.
With `Cc1[nH]c2ccccc2c1/C=N/Nc1ccccc1[N+](=O)[O-]` the Potency was inconclusive [inhibitor, single point].
For `CCOC(=O)C1=C(C)Nc2sc(C(=O)c3ccc(C)cc3)c(N)c2C1c1ccc(C(=O)OC)cc1` (stereo not drawn), the Potency was inconclusive [inhibitor, partial curve].
For `N#Cc1c(NC(=O)CS(=O)(=O)c2ccc(Cl)cc2)sc2c1CCCCC2`, the Potency was “inactive”.
For `Cc1cc(C(=O)CSc2nnc(-c3ccccc3F)o2)c(C)n1Cc1cccs1`, the Potency was “inactive”.
For `CC1=NN(c2ccc(C)cc2C)C(=O)C1C(c1ccccc1)C1C(=O)N(c2ccc(C)cc2C)N=C1C` (stereo not drawn), the Potency was inconclusive [inhibitor, single point].
For `COc1ccccc1/C=C\C(=O)NCC(=O)N/N=C/c1ccc(O)cc1O`, the Potency was inconclusive [inhibitor, partial curve, poor fit].
With `CSCC(=O)N1CCCC(CNC(=O)c2ccccc2Cl)C1` (stereo not drawn) the Potency was “inactive”.
With `Cc1ccc(NC(=S)N/N=C2\CCCCC2C)cc1` (stereo not drawn) the Potency was inconclusive [inhibitor, single point].
In the case of `[O-][N+]1=C2CCC/C(=N\O)C2=NC12CCCCC2`, the Potency was inconclusive [inhibitor, single point].
With `O=C1C=C(c2ccccc2)CC(c2cccs2)C1n1cnc([N+](=O)[O-])c1` (stereo not drawn) the Potency was inconclusive [inhibitor, partial curve, poor fit].
`COc1ccc(-c2cc(-c3ccc(Cl)cc3)c(C#N)c(SCC(=O)O)n2)cc1` was tested, and the Potency was inconclusive [inhibitor, single point].
With `CCOC(=O)c1c(NC(C)=O)c2c3c(sc2n1Cc1nc(-c2cccc(C)c2)oc1C)CCCC3` the Potency was “inactive”.
`Cc1cc2nnc(SC(C)C#N)n2c2ccccc12` (stereo not drawn) was tested, and the Potency was inconclusive [inhibitor, single point].
With `CCCCC(CC)CN=C(N)NC(N)=NCCCCCCN=C(N)NC(N)=NCC(CC)CCCC` (stereo not drawn) the Potency was active: 15.8 µM.
With `CN(Cc1ccon1)C(=O)CCc1nnc(Cc2ccc(-c3ccccc3)cc2)o1` the Potency was inconclusive [inhibitor, single point].
In the case of `Cc1ccc(S(=O)(=O)NCC23C=CC(O2)C2C(=O)N(c4ccccc4)C(=O)C23)cc1` (stereo not drawn), the Potency was “inactive”.
In the case of `Cc1ccccc1C(=O)N/N=C/c1ccc(Sc2ccccn2)o1`, the Potency was “inactive”.
With `CCc1c(C)[nH]c2ccc(OC)cc2c1=S` the Potency was inconclusive [inhibitor, single point].
In the case of `CC1=C(CC/C(C)=N/NC(N)=S)C(C)(C)CCC1`, the Potency was “inactive”.
`CC(C)[C@H](NC(=O)C1CC(=O)N(c2ccc3c(c2)OCO3)C1)C(=O)NC1CCCC1` (stereo partly drawn) was tested, and the Potency was inconclusive [inhibitor, single point].
In the case of `Cc1ccc(C)c2[nH]c(=O)c(C(c3nnnn3Cc3ccccc3)N3CCc4ccccc4C3)cc12` (stereo not drawn), the Potency was inconclusive [inhibitor, single point].
`CC(C)C(C(=O)O)N1C(=O)/C(=C/C=C/c2ccco2)SC1=S` (stereo not drawn) was tested, and the Potency was inconclusive [inhibitor, single point].
With `CC(=O)Nc1cccc(C(=O)N2CCN(S(=O)(=O)c3ccc(C4CCCCC4)cc3)CC2)c1` the Potency was “inactive”.
For `CCN(C(=O)C(C)N1C(=O)/C(=C/c2ccco2)SC1=S)C1CCS(=O)(=O)C1` (stereo not drawn), the Potency was inconclusive [inhibitor, partial curve, poor fit].
